The whole screen tested about 150,000 compounds, of which about 540 (0.36%) showed an effect of 50% or more. The list shows a part of the results.

The subject of the experiment is Plasmodium falciparum. Nature of the experiment: Primary screen in NF54 nanoGlo assay, in single point, at 2uM, 72h; a lower Z score goes with more inhibition. In kind it is functional, Erythrocyte. Conditions: timepoint 72 hour.
As to `COCCN1C[C@]2(CCCN(c3nccc(N)n3)C2)CCC1=O`, the “% Inhibition” value worked out at 8% and the Z score is given as -0.88.
On the same counts, the results for `Cc1nonc1OCCN1C[C@@](C)(c2ccccc2)CCC1=O` are 12% and -1.58.
Turning to `Cc1[nH]c(C)c(S(=O)(=O)NCc2ccccc2)c1-c1nc(C2CC2)no1`, the “% Inhibition” value is reported as -8% and the Z score stood at 1.64.
On the same counts, the results for `CCc1ccc(NC(=O)c2ccc(N3CC(C)CC(C)C3)c(NS(=O)(=O)c3cc(OC)ccc3OC)c2)cc1` (stereo unspecified) are -4% and 0.55.
On the same counts, the results for `Cc1ccccc1OC[C@H](O)C(=O)NCC1(CN2CCN(C)CC2)CC1` are -16% and 2.39.
Taken in the same sequence, the figures for `CC(C)(C)NC(=O)NC(=O)CNC1(C(=O)OC(C)(C)C)CCCC1` were -10% and 1.38.
`Cc1ccc([C@H](C)NC(=O)N2CCC3(CCCCCC3)C2)cn1`: the “% Inhibition” value is on record as -3% and the Z score turned out to be 0.35.
Taken in the same sequence, the figures for `C=CCN(CC=C)CCOc1ccccc1` were 4% and -0.53.
Taken in the same sequence, the figures for `COc1ccc([C@@H]2CCCN2C(=O)c2ccc(=O)[nH]n2)cc1OC` were -16% and 1.41.
On the same counts, the results for `O=C(c1nccc2ccccc12)N1CCO[C@H](c2ccccc2)C1` are -7% and 0.68.
On to `Cc1cc(C)nc(N2CCCC(C(=O)N[C@H](CC(C)C)c3nnc4ccccn34)C2)n1` (stereo partly specified), for which the “% Inhibition” value stood at 8% and the Z score is -1.1.
Taken in the same sequence, the figures for `CC[C@H](C)NC(=O)CN1CN(c2ccccc2)C2(CCN(C(=O)Nc3ccccc3C)CC2)C1=O` were -7% and 1.3.
Regarding `O=C(NC[C@H]1COCCO1)NC1(CO)CCC1`, the “% Inhibition” value is -9% and the Z score is on record as 1.59.
Taken in the same sequence, the figures for `COc1ccccc1C1CN(C(=O)c2ccccc2F)CC1C(=O)NC1CC1` (stereo unspecified) were -12% and 1.78.
Taken in the same sequence, the figures for `CC(=O)Nc1ccc(-c2cc(-c3ccc(NC(C)=O)cc3)nc(-c3ccc(Br)cc3)n2)cc1` were 1% and -0.14.
For the compound `CC[C@H](C)N(Cc1ccncc1)C(=O)CNC(=O)c1ccccc1`, the “% Inhibition” value is given as 3% and the Z score was -0.39.
Taken in the same sequence, the figures for `CCCCC(N)C(=O)NC(C)c1cccnc1` (stereo unspecified) were 12% and -1.39.
`O=C(c1cccc(F)c1)N1CCC[C@@]2(C1)Nc1ccccc1N=C2NC1CCCC1`: the “% Inhibition” value is 29% and the Z score is reported as -3.33.
Taken in the same sequence, the figures for `Cc1ccc(CNCc2ccc(N3CCNC(=O)C3)cc2)cc1C` were -12% and 1.6.
For `C[C@@H]1CC[C@H](C(=O)O)[C@H](C)N1Cc1cc(-c2ccc(Cl)cc2)no1`, the “% Inhibition” value is -12% and the Z score worked out at 1.58.
In the case of `Cc1cnc2c(cnn2CC(=O)N2CCC(O)(C3CCC3)CC2)c1`, the “% Inhibition” value turned out to be 0% and the Z score is listed as -0.04.
On the same counts, the results for `Cc1ccccc1C(=O)N1C(=O)N(c2ccc(Cl)cc2)C2(C)CC1c1ccccc1O2` (stereo unspecified) are -2% and 0.18.
On the same counts, the results for `NS(=O)(=O)N1CCn2c(cc3ccc(Cl)cc32)C1` are -3% and 0.57.
For `Cc1nn(C)c(C)c1C(=O)Nc1ccc(-n2ncc3ccccc32)cc1`, the “% Inhibition” value is -12% and the Z score came out at 1.67.
`O=C1CC[C@H](C(=O)Nc2cccnc2)CN1`: the “% Inhibition” value is reported as -3% and the Z score came out at 0.43.
Taken in the same sequence, the figures for `c1ccc2c(-c3nccn3CCn3ccnc3)cccc2c1` were -13% and 1.82.
Taken in the same sequence, the figures for `C[C@H](CO)N(C)c1cc(-c2ccccc2)nc2ncnn12` were -8% and 1.19.
For `C=CCNC(=O)N1C[C@@H]2Oc3ccccc3S(=O)(=O)NC[C@H](O)CN(C)[C@@H]2C1`, the “% Inhibition” value worked out at 13% and the Z score is -2.04.
On the same counts, the results for `O=C(NCCn1nc(C2CC2)ccc1=O)c1cscn1` are 11% and -1.39.
On the same counts, the results for `O=C(NCC[C@H]1CCC(F)(F)C1)c1cncc(N2CCCC2=O)c1` are -15% and 1.6.
On the same counts, the results for `CC1(CO)CCCC1Nc1ncc(Br)cn1` (stereo unspecified) are -13% and 1.31.
For `COc1ccc(CCNC(=O)CCc2c(C)[nH]c(=O)n(C)c2=O)cc1OC`, the “% Inhibition” value is 0% and the Z score was found to be 0.01.
On the same counts, the results for `CC(C)(C)OC(=O)Nc1cc(NC(=O)CC#N)c(F)c(F)c1F` are 10% and -1.43.
Taken in the same sequence, the figures for `O=C(NC1(C(F)(F)F)CC1)[C@@H]1CN(S(=O)(=O)c2ccccc2Cl)CCO1` were -12% and 2.3.
On the same counts, the results for `CC(NCc1ccc(S(=O)(=O)CCO)cc1)[C@H]1COC(C)(C)O1` (stereo partly specified) are 21% and -2.64.
Turning to `c1ccc(C2=N[C@@H](c3ccccc3)[C@@H](c3ccccc3)N2)cc1`, the “% Inhibition” value came to 3% and the Z score is reported as -0.39.
For the compound `O=C(CC1(C(=O)O)Cc2ccccc2C1)N1CCc2sccc2C1`, the “% Inhibition” value is -11% and the Z score amounted to 1.01.
Taken in the same sequence, the figures for `Cc1ccc2c(c1)[C@H]1OCC[C@H]1C(c1ccncc1)N2` (stereo partly specified) were -7% and 1.2.
On the same counts, the results for `N#Cc1cn(Cc2ccc(OC[C@H]3CCCO3)cc2)c(=O)[nH]c1=O` are 8% and -1.56.
Turning to `CC(C)NC(=O)CNC1CCC2(CC1)C[C@@H]2NC(=O)OC(C)(C)C` (stereo partly specified), the “% Inhibition” value was -3% and the Z score is reported as 0.51.
On the same counts, the results for `O=C(NCCn1cc(-c2ccncc2)cn1)c1cccs1` are 13% and -1.64.
As for `Clc1ccc(-n2cccc2CN2CCCn3cncc3C2)nc1`, the “% Inhibition” value is recorded as -10% and the Z score was determined as 1.87.
As for `CCN1C[C@H](CN(C)Cc2nc(C3CC3)no2)Oc2ccccc21`, the “% Inhibition” value is recorded as -6% and the Z score worked out at 0.71.

Broadly, the % Inhibition is the drop in the measured response relative to a control, in per cent.

The values above are taken from ChEMBL document CHEMBL4888484, “Replenishing the malaria drug discovery pipeline: Screening and hit evaluation of the MMV Hit Generation Library 1 (HGL1) against asexual blood stage Plasmodium falciparum ,using a nano luciferase reporter read-out” (2022).
